Data as given in ChEMBL document CHEMBL1201862, “PubChem BioAssay data set” (2004).
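Following 48 hours of exposure in 96-well plates, responses at five concentrations were used to interpolate endpoints linearly. The concentration for 50% growth inhibition is given as GI50.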 Activity calls are given as the source filed them. No stated cut-off is given here; in the data, active = GI50 up to about 1.1 µM and inactive = higher.

System: NCI-H322M
Test: NCI-60 cell line screen, 48 h

SMILES	GI50
CC1=C(C(=O)Nc2ccc([N+](=O)[O-])cc2)C(c2ccc(N(C)C)cc2)C(C(=O)Nc2ccc([N+](=O)[O-])cc2)=C(C)N1	inactive: 20.7 µM
CCCOc1cc2c(cc1O)CC[C@@H]1[C@@H]2CC[C@]2(C)[C@@H](O)CC[C@@H]12	inactive: 5.69 µM
O=C1C=CC2(C=C1)O[C@H](Cc1ccccc1)[C@@H](Cc1ccccc1)O2	inactive: 12 µM
CC1=NN(c2ccccc2)C(=O)C1/N=N/c1ccc(S(N)(=O)=O)cc1 (stereo unspecified)	inactive: > 100 µM
COc1ccc(C(=O)CC(c2ccc(OC)c(OC)c2)c2c(O)oc3ccccc3c2=O)cc1OC (stereo unspecified)	inactive: > 100 µM
CCOC(=O)c1cnn2c1ncc1c(=O)n(NC(N)=O)ccc12	inactive: > 100 µM
COc1ccc(/C=C\c2cc(OC)c(OC)c(OC)c2)cc1OC(=O)CC(N)C(=O)O (stereo unspecified)	active: 0.00432 µM
CC(=O)C(C)CCOC1(C)OCCC1C (stereo unspecified)	inactive: > 100 µM
CC(C)=CCOC(=O)C(C)=[N+]=[N-]	inactive: > 100 µM
CCNC(=O)C(C)C1CCC2(C)C=CC(=O)C(C)=C2C1O (stereo unspecified)	inactive: > 100 µM
CCOC(=O)C(O)(NC(C)=O)C(F)(F)F (stereo unspecified)	inactive: > 100 µM
Clc1ccc(Cl)c(/N=N\c2cc3c4c(c2)CCN4CCC3)c1	inactive: > 10 µM
Brc1ccc(-c2[nH]c3ccccc3c2/N=N\c2ccccc2)cc1	inactive: 17.8 µM
CC(=O)Nc1ccc(C(=O)NN2C(=O)C(Cl)C2c2ccccc2O)cc1 (stereo unspecified)	inactive: 26 µM
COc1cc([C@H]2CC(=O)C[C@H](c3cc(OC)c(OC)c(OC)c3)C23C(=O)c2ccccc2C3=O)cc(OC)c1OC	inactive: > 100 µM
COC(=O)CCC1CCc2c(OC)ccc(OC)c2C1=O (stereo unspecified)	inactive: > 100 µM
CCOC(=O)C(NC(=O)Nc1ccc(C)cc1)(OCC)C(F)(F)F (stereo unspecified)	inactive: > 100 µM
C=CCOc1cc(NC(=S)c2ccoc2C)ccc1OC	inactive: > 100 µM
C/C=C/C#CC#C/C=C/C=C/C(O)CCO (stereo unspecified)	inactive: > 23.1 µM
Cc1ccc(OC2CC(n3cnc4ncnc(Cl)c43)OC2Oc2ccc(C)cc2)cc1 (stereo unspecified)	inactive: 17.9 µM
O=C(O)c1cc2ccc(Cl)cc2c(O)c1C1=CCCCC1	inactive: 28.2 µM
CC(C)(CN1CCCCC1)C(/C=C/c1ccc(Cl)cc1)=N\NC(=O)N/N=C(/C=C/c1ccc(Cl)cc1)C(C)(C)CN1CCCCC1	inactive: 12.4 µM
NNC(=S)N/N=C(\c1nc2ccc(Cl)cc2nc1O)C(O)c1cccc([N+](=O)[O-])c1 (stereo unspecified)	inactive: > 100 µM

SMILES	GI50
O=c1cc(N2CCOCC2)[nH]c(=O)n1-c1ccc(F)cc1	inactive: > 100 µM
COCO[C@@H]1C[C@H]2C(=O)Nc3ccccc3C(=O)N2C1	inactive: > 100 µM
N#CCCC1(CCC#N)CCCCCCC(CCC#N)(CCC#N)C(=O)C1=O	inactive: > 100 µM
O=C(c1ccc(Cl)cc1)N(Cc1cccnc1)C(=S)N(Cc1cccnc1)C(=O)c1ccc(Cl)cc1	inactive: 30.6 µM
CC1(C)N=c2c(ncn2CCCO)=C(C(N)=O)N1	inactive: > 100 µM
COc1cc(OC)c2ssc3c(OC)cc(OC)c4ssc1c2-c43	inactive: > 100 µM
CC[C@]1(Cc2ccc(OC)c(OC)c2)C=[N+]([O-])O[C@H](OC2CCCC2(c2ccccc2)c2ccccc2)[C@@H]1OC(C)=O (stereo partly specified)	active: 0.403 µM
O=C(c1ccccc1)c1ccc(COc2ccc(C(c3c(O)c4ccccc4oc3=O)c3c(O)c4ccccc4oc3=O)cc2)cc1	inactive: 17.7 µM
N#C/C(=C\c1ccc(CP(=O)(O)O)cc1)C(N)=O	inactive: > 100 µM
Cc1cccc2c(=O)c3c(O)cc4c(c3n(C)c12)C=CC(C)(C)O4	inactive: > 100 µM
O=C(CCc1cc(-c2ccccc2)nc(S)n1)N(Cc1ccccc1)Cc1ccccc1	inactive: > 100 µM
CSC1CC2C(CC1(C)O)C2(C)C (stereo unspecified)	inactive: > 100 µM
C[S+]([O-])c1cc(=O)c2ccccc2s1 (stereo unspecified)	inactive: 20.7 µM
CC(=O)NC1C(OC(C)C(=O)NC(C)C(=O)NC(CCC(=O)NCCCCCNc2ccc([N+](=O)[O-])c3[nH]c4ccccc4c(=O)c23)C(N)=O)C(O)C(CO)OC1(C)OCc1ccccc1 (stereo unspecified)	inactive: > 100 µM
Cc1ccc(C(=O)/C=C2\Nc3ccccc3NC2=O)cc1	inactive: 5.75 µM
CC(=O)c1cccc(C)c1C(=O)O	inactive: > 100 µM
CC/C(=C/OC)P1(=O)OC(C)(C)CN1C(C)(C)C (stereo unspecified)	inactive: > 100 µM
COC(=O)C(CC=O)C(=O)C(=O)Nc1cccc(C(F)(F)F)c1 (stereo unspecified)	inactive: > 100 µM
N#Cc1c(NC(=S)NC(=O)c2ccccc2)nc2c(c1-c1ccccc1)CCCC2	inactive: > 100 µM
CC(=N\N)/C(C)=N/N=C(C)/C(C)=N/N=C(C)/C(C)=N/N=C(C)/C(C)=N/N	inactive: > 100 µM
COCCOC1=CC(=O)c2c(O)ccc(O)c2C1=O	inactive: 1.42 µM
[O-][Cl+3]([O-])([O-])[O-].c1ccc(-c2[o+]c(-c3ccccc3)c(-c3ccccc3)c(-c3ccccc3)c2-c2ccccc2)cc1	inactive: > 100 µM
COc1c(C)c(C/C=C(\C)CCCCO)c(OC)c(OC)c1OC	inactive: > 100 µM

SMILES	GI50
CN(C)CCCNC1=C(Cl)C(=O)c2c(O)ccc(O)c2C1=O	inactive: 1.7 µM
O=C(NCCCNCCCCNCCCNC(=O)C(F)(F)F)C(F)(F)F	inactive: > 100 µM
CC(=O)CC1(O)C(=O)c2c(Br)sc(Br)c2C1=O	inactive: > 100 µM
COC(=O)/C(C#N)=C1\NN=NN1c1ccc(OC)cc1	inactive: > 100 µM
CN1C(=O)c2ccccc2NC(=O)C12O[C@@H]2c1ccccc1 (stereo partly specified)	inactive: > 100 µM
COc1ccc(-c2c(C#N)c(O)n(NS(=O)(=O)c3ccc(C)cc3)c(=O)c2C#N)cc1	inactive: > 100 µM
Clc1cc2c(cc1Cl)CC(NCCN1CCCC1)CC2 (stereo unspecified)	inactive: 15.3 µM
O=C(/C=C\c1cccc2ccccc12)c1ccc(Br)cc1	inactive: 47.6 µM
COc1ccc(C(O)c2nccn2C)c(OC)c1 (stereo unspecified)	inactive: > 100 µM
O=C(Nc1ccc(Sc2ccc(/N=N/c3c(O)c(S(=O)(=O)O)cc4cc(S(=O)(=O)O)ccc34)cc2)cc1)c1ccc(/N=N/c2c(O)ccc3c(S(=O)(=O)O)cc(S(=O)(=O)O)cc23)cc1	inactive: 29.7 µM
COc1ccc(NC(=O)CC(=O)n2nc(-c3ccccc3)c(/N=N/c3ccc(C)cc3)c2-c2ccccc2)cc1	inactive: 45.2 µM
O=C(Nc1ccccc1[N+](=O)[O-])C(=O)C(C(=O)c1ccccc1-c1ccccc1)C1OC(=O)c2ccccc21 (stereo unspecified)	inactive: 13.7 µM
S=C(Nc1ccccc1)N(Cc1ccccc1)c1ccccc1	inactive: 25 µM
O=C(O)COc1c(Cl)cc(Cl)c(C(c2c(Cl)cc(Cl)c(OCC(=O)O)c2Cl)C(Cl)(Cl)Cl)c1Cl	inactive: 22.6 µM
CCCCCCCCCCCCC(CC)CCCCC(=O)O (stereo unspecified)	inactive: > 100 µM
COC(=O)C1(C)CC2C(C)(CCC3(C)C4=CC=C5C(=CC(=O)C(O)=C5C)C4(C)CCC23C)CC1O (stereo unspecified)	inactive: 2.61 µM
CC1CC(C)[C@H](O)C([C@H](O)CC2CC(=O)N(C)C(=O)C2)C1 (stereo partly specified)	inactive: > 100 µM
O=S(=O)(O)c1ccc(/N=N/c2ccc(/N=N/c3c(O)ccc4ccccc34)cc2)cc1	inactive: > 100 µM
CC(C)C[C@H](NC(=O)[C@H](CCc1ccccc1)NC(=O)c1ccc2ccccc2n1)B(O)O	inactive: 1.99 µM
c1ccc(CC(Nc2cccnc2)c2ccccc2)cc1 (stereo unspecified)	inactive: 25.9 µM
O=C(CC(=O)Nc1ccc(Cl)cc1)NNCC(=O)Nc1nc(-c2ccccc2)cs1	inactive: > 100 µM
COc1ccc(N(C)Sc2ccccc2)cc1	inactive: > 100 µM
Cn1cc2ccccc2c1-c1nc(F)nc(F)n1	inactive: > 100 µM

SMILES	GI50
COc1ccc(C2S/C(=C\c3ccccc3O)C(=O)N2NC(=O)Cc2ccccc2)cc1 (stereo unspecified)	inactive: > 100 µM
FC(F)=C(c1ccc(-c2ccc(Cl)cc2)cc1)C(F)(F)F	inactive: 17.9 µM
CCOC(=O)c1c(-c2ccccc2)c(OC)cn1C	inactive: > 10 µM
O=C1C2C=CC(n3[nH]c(=O)n(Cc4ccccc4)c3=O)CC2C(=O)N1c1ccc(Br)cc1 (stereo unspecified)	inactive: > 100 µM
C=C(c1ccccc1)C1ON(C)CCc2cc(OC)c(OC)cc21 (stereo unspecified)	inactive: > 100 µM
N[C@H]1c2c(Br)sc(Br)c2C(=O)[C@H]1O	inactive: 19.5 µM
COc1ccc2nc3cc(Cl)ccc3c(NCCC(=O)OCC(O)C(O)C(O[C@H](C)C(=O)NC(C)C(=O)NC(CCC(N)=O)C(=O)OCc3ccccc3)C(C=O)NC(C)=O)c2c1 (stereo partly specified)	inactive: 19.2 µM
O=C(c1ccc(Cl)cc1)N(C(=O)N1CCCCC1)c1ccccc1	inactive: 65.6 µM
Cc1ccc2nc(-n3c(/C=C/c4ccccc4O)nc4ccccc4c3=O)sc2c1	inactive: > 100 µM
Clc1ccc2c(c1)C1C(CO2)C(c2ccccc2)=NN1c1ccccc1 (stereo unspecified)	inactive: > 100 µM
CC(C)(C)/N=C1\C(=O)C2(C)CCC1C2(C)C (stereo unspecified)	inactive: > 100 µM
CC1(C)CCC[C@]2(C)[C@@H]1CC[C@@]13O[C@@H]1C1=C(CO)C(=O)OC1=C[C@@H]23	inactive: 19.7 µM
CN(C)CCCNC(=O)c1cc(NC(=O)c2cc(NC(=O)[C@H]3C[C@@H]3C(=O)Nc3cc(C(=O)Nc4cc(C(=O)NCCCN(C)C)n(C)c4)n(C)c3)cn2C)cn1C	inactive: > 100 µM
C=C(C)CCC1CCCCC(CN(C)C)C1=O (stereo unspecified)	inactive: > 100 µM
CC(C)(C)OC(=O)N1C(C2=COc3ccccc3O2)=COc2ccccc21	inactive: 34.1 µM
Cc1cc(NCCCCCCCCCC[n+]2c(C)cc(N)c3ccccc32)c2ccccc2n1	inactive: 2.99 µM
CC1CC(C#N)=C2NCCN2C1=O (stereo unspecified)	inactive: > 100 µM
Cc1nnc2n1-c1ccccc1C(=S)N1CSCC21 (stereo unspecified)	inactive: > 100 µM
CC(C)(C)C1=CC(=C(P(=O)(O)O)P(=O)(O)O)C=C(C(C)(C)C)C1=O	inactive: > 50 µM
COc1ccc2cc(CNCCCCCCCCNCc3ccc4cc(OC)ccc4c3)ccc2c1	inactive: 3.93 µM
Cc1nn(C)c(=S)n(C)c1=O	inactive: 43.7 µM
Nc1nc(SCc2ccccc2[N+](=O)[O-])c2[nH]cnc2n1	inactive: > 70.5 µM
